# Data from the supplement of paper PMC7125110.
# ± gives the standard error. This sample is rich in variants without activity.
# B1: glmS ribozyme (parent)
# chain: AUAAAAGCGCCAGAACUACAGAAAUGUAGUUGACGAGGAGGAGGUUUAUCGAAUUUUCGGCGGAUGCCUCCAAA
# Key:
# Settings in all cases: with glucosamine-6-phosphate
# glucosamine-6-phosphate [1] = variants of: B1; experiment: self-cleavage kobs at 160 uM GlcN6P; higher = faster cleavage; RNA array
# Procedure, shortened: (§1)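 Barcoded ribozyme variants were transcribed in situ on sequenced MiSeq chips by E. coli RNA polymerase. At 37 °C, a hybridised Cy3 probe tracked them while glucosamine-6-phosphate (40 μM to 10 mM) in HEPES/KCl/Mg(OAc)2 buffer flowed in and tiles were imaged over ~14 h. Per-tile medians of signals normalised to baseline and to non-cleaving reference variants were fit to one- or two-exponential decays, giving kobs. kcat and KM came from weighted Michaelis–Menten fits across concentrations.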
# glucosamine-6-phosphate [2] = variants of: B1; experiment: self-cleavage kobs at 10000 uM GlcN6P; higher = faster cleavage; RNA array
# Procedure, shortened: as §1
# glucosamine-6-phosphate [3] = variants of: B1; experiment: self-cleavage kobs at 2500 uM GlcN6P; higher = faster cleavage; RNA array
# Procedure, shortened: as §1
# glucosamine-6-phosphate [4] = variants of: B1; experiment: self-cleavage kobs at 640 uM GlcN6P; higher = faster cleavage; RNA array
# Procedure, shortened: as §1
Variant,self-cleavage kobs at 160 uM GlcN6P (glucosamine-6-phosphate [1]) [s⁻¹],self-cleavage kobs at 10000 uM GlcN6P (glucosamine-6-phosphate [2]) [s⁻¹],self-cleavage kobs at 2500 uM GlcN6P (glucosamine-6-phosphate [3]) [s⁻¹],self-cleavage kobs at 640 uM GlcN6P (glucosamine-6-phosphate [4]) [s⁻¹]
G13U U49A,< 1e-05,< 1e-05,,
A6G G29A U69A,< 1e-05,< 1e-05,< 1e-05,
A14G A42U G51U C70G,< 1e-05,,,
G13A A15G G51A U54G C61A A64C,< 1e-05,,,
C8A G29C G32C,< 1e-05,,,
C8A U69A,< 1e-05,,,
G13C U30G,< 1e-05,,,
A12C A14U G44U U45A,< 1e-05,,,
A33C G38C G51C,< 1e-05,,,
C16G G37A G43C,< 1e-05,,< 1e-05,
C10U G32U G40U,< 1e-05,,,
A14G C16A U17C A18U C19A A20C U56C C67G,< 1e-05,,,
G9U U30A,< 1e-05,,< 1e-05,
A33G A42U G59U,< 1e-05,,,
G7U A14G U56G C67G,< 1e-05,,< 1e-05,
C11U C34U G66C,< 1e-05,,< 1e-05,
C16G G41U U54A,< 1e-05,,,
G9U A14U A48G,< 1e-05,,< 1e-05,
C61U U69A,3.86e-05 ± 1.8e-05,,6.76e-05 ± 1.9e-05,4.2e-05 ± 1.3e-05
C10G C34G G38A U47A,< 1e-05,,,
U31C A36U A42U,< 1e-05,,,
C11U C68U C70U,< 1e-05,,,

Variant,self-cleavage kobs at 160 uM GlcN6P (glucosamine-6-phosphate [1]) [s⁻¹],self-cleavage kobs at 10000 uM GlcN6P (glucosamine-6-phosphate [2]) [s⁻¹],self-cleavage kobs at 2500 uM GlcN6P (glucosamine-6-phosphate [3]) [s⁻¹],self-cleavage kobs at 640 uM GlcN6P (glucosamine-6-phosphate [4]) [s⁻¹]
A15C A52C C71U,< 1e-05,,,
G32U A48G C68U,< 1e-05,,< 1e-05,
G7C G41A G62U,< 1e-05,,< 1e-05,
C11G U45C C71G,< 1e-05,,< 1e-05,
G13U A36C G38U A39C,< 1e-05,< 1e-05,,
G62C C70G C71A,,,5.21e-05 ± 2.2e-05,6.26e-05 ± 2.7e-05
A14C C16A U31C G35C U55G,< 1e-05,< 1e-05,< 1e-05,
C10A G35A A39G,< 1e-05,,< 1e-05,
A6G C11U A39C,< 1e-05,,,
G32U A48C,< 1e-05,< 1e-05,,
A12U G35U G41C C71G,< 1e-05,,< 1e-05,
A33C A48U A64U,< 1e-05,,,
A14C U45G,6.63e-05 ± 1.5e-05,,,
A6U C10A G35U G38U A52C,< 1e-05,,< 1e-05,
G7A A33C A42C A48C,< 1e-05,,< 1e-05,
C10U G43A,< 1e-05,< 1e-05,< 1e-05,
G32C U54C,< 1e-05,,,
G9C A12G,< 1e-05,< 1e-05,< 1e-05,
U30A A42U,< 1e-05,,,
A6G A14C A42G U49G,< 1e-05,,,
U30A U54A C67U C68A,3.56e-05 ± 1.7e-05,,4.46e-05 ± 2.1e-05,
U65A G66C,,0.000436 ± 8.9e-05,0.000267 ± 8.2e-05,0.000156 ± 3.2e-05

Variant,self-cleavage kobs at 160 uM GlcN6P (glucosamine-6-phosphate [1]) [s⁻¹],self-cleavage kobs at 10000 uM GlcN6P (glucosamine-6-phosphate [2]) [s⁻¹],self-cleavage kobs at 2500 uM GlcN6P (glucosamine-6-phosphate [3]) [s⁻¹],self-cleavage kobs at 640 uM GlcN6P (glucosamine-6-phosphate [4]) [s⁻¹]
G32U C34A G40C U57A G62U,< 1e-05,,,
C10U U56C C67U,< 1e-05,,,
G60U A64C,< 1e-05,,< 1e-05,< 1e-05
C10U G32A G40C C68U,< 1e-05,,,
A6U C10G A42C,< 1e-05,,< 1e-05,
U31A U49A G60A,< 1e-05,,< 1e-05,
A6U C11A G13U,< 1e-05,,,
G7U A33G C71U,< 1e-05,,< 1e-05,
C8G G59A C70G,< 1e-05,,,
C11U G51U A53G,< 1e-05,,,
A12G U31C G35A C50G A52U C68A,< 1e-05,,< 1e-05,
G9A A36G C67A,< 1e-05,,,
C8U G29C G51A,< 1e-05,,,
G62C A64U G66U,,,< 1e-05,< 1e-05
C8U C70A,< 1e-05,,,
U30G G35C G60U C61A,< 1e-05,,,
A14U A15C C34U,< 1e-05,,,
A12G A15U G40C,< 1e-05,,,
G7A A12C A39G,< 1e-05,,,
G9C C11G C61G G63U,< 1e-05,,< 1e-05,
G9A C16A G35C A39U C71A,< 1e-05,,< 1e-05,
